# Screen size: about 310,000 compounds; about 2,200 (0.71%) showed an effect of 50% or more. Effects have a minus sign here. The list shows a part of the results.
# Biological target: human ether-à-go-go-related gene (hERG) potassium channel (human, UniProt Q12809)
# Experiment: primary screen, population patch clamp on CHO cells stably expressing hERG
# human ether-à-go-go-related gene (hERG) potassium channel, sequence (Q12809 whole entry, looked up): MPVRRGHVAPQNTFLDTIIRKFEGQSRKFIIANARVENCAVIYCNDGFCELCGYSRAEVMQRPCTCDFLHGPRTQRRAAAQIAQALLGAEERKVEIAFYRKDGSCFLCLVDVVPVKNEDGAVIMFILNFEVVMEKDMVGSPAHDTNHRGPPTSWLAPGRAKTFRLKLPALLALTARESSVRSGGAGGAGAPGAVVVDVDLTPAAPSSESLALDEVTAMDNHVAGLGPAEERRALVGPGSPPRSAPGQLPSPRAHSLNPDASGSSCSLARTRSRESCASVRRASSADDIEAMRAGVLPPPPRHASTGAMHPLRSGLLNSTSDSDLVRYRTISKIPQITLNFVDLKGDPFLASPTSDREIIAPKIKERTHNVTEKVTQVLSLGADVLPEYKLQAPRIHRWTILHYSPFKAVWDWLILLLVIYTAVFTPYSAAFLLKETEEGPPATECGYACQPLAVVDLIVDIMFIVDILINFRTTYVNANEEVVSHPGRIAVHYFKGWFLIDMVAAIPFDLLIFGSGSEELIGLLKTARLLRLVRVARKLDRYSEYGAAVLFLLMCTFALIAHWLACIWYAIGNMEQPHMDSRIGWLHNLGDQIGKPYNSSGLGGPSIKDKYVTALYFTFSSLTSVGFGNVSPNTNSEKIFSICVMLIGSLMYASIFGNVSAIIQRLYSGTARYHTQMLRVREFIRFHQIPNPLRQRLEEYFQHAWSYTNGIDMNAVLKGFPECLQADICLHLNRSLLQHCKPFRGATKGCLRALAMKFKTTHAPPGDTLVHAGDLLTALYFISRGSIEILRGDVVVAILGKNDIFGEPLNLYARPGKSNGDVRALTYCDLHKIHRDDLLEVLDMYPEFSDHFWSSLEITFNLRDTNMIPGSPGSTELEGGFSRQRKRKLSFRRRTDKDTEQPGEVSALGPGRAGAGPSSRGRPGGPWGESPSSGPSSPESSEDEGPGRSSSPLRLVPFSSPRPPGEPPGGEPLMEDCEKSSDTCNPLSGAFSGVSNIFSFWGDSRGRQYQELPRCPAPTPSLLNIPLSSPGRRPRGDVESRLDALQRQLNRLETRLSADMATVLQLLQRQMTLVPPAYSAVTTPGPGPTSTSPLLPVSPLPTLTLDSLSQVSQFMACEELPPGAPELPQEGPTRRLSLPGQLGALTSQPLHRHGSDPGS
row,Structure (SMILES),"hERG current change (%, negative = inhibition) at 1uM"
1,CC(=O)NCC(=O)N(C)C(C(=O)Nc1ccc(C(C)C)cc1)c1ccccc1 (stereo not drawn),8.76%
2,CCOC(=O)N1CCN(c2cc(N3CCOCC3)c(F)cc2[N+](=O)[O-])CC1,5.62%
3,CC1=CC(C)(C)NC(=S)N1c1cccc(C)c1,4.71%
4,COCC1CCN(Cc2cn(C)nc2-c2cccc(Cl)c2)C1 (stereo not drawn),4.84%
5,COC(=O)C1CCN(CCCOc2ccc(CN3CCN(c4ccc([N+](=O)[O-])cc4)CC3)cc2)CC1,-27.7%
6,CC(=O)Nc1ccc(CN2CCc3c([nH]c4ccccc34)C2c2ccccn2)cc1 (stereo not drawn),-11.2%
7,COC(=O)Cn1c(=NC(=O)CSC(C)=O)sc2ccccc21,4.33%
8,CCOC(=O)CC(=O)CSc1nc2c(cc1C#N)CCC2,12.3%
9,COC(=O)[C@H](CCSC)NC(=O)NC1CC1,18.4%
10,NC(=O)CSc1nnc(NC(=O)c2ccc3ccccc3c2)s1,-0.774%
11,Cn1c(N)c(C(=O)CSc2nnc(-c3c[nH]c4ccccc34)n2C2CC2)c(=O)[nH]c1=O,6.25%
12,Cc1cc(C)cc(Nc2cnn(C34CC5CC(CC(CC(=O)O)(C5)C3)C4)c(=O)c2Cl)c1,7.86%
13,CC(C)Oc1ccc(C(=O)Nc2ccc(S(=O)(=O)N3CCN(C)CC3)cc2)cc1,12.2%
14,CC1(C)Cc2nc(N3CCCC3)c(C#N)cc2CO1,-1.56%
15,Cn1c(CN2CCOCC2)nc2cc(NC(=O)c3ccccc3Cl)ccc21,4.59%
16,CN(Cc1nc2ccccc2c(=O)[nH]1)C(=O)c1ccc(NC(=O)CSc2nnnn2C)cc1,7.58%
17,COc1ccc(CSCC(=O)N/N=C/c2ccc(OCC(=O)N3CCCCC3)cc2)cc1,17%
18,CCOC(=O)N1CCN(C(=O)CCn2nc(-c3ccc(Cl)cc3)ccc2=O)CC1,-24.9%
19,COC(=O)C1=NN(C(=O)c2cccc(Cl)c2)C(O)(C(C)(C)C)C1 (stereo not drawn),10.4%
20,O=C1CCc2cc(S(=O)(=O)NCc3ccccc3Cl)cc3c2N1CC3,8.34%
21,COc1ccccc1Nc1nc(-c2ccccc2)nc2ccccc12,18.4%
22,O=C(c1ccccc1)N1CCOC12CCN(c1ncc(C(F)(F)F)cc1Cl)CC2,15.1%
23,Cc1ccc(OCCCCn2c(CO)nc3ccccc32)cc1,0.302%

row,Structure (SMILES),"hERG current change (%, negative = inhibition) at 1uM"
1,CN=C1S/C(=C\c2cccc(Cl)c2Cl)C(=O)N1C,2.62%
2,O=S(=O)(Nc1ccccc1Cl)c1ccc(-c2ccccn2)s1,22.5%
3,COc1ccc(S(=O)(=O)N(CCCN2CCOCC2)Cc2ccc(OC)c(OC)c2)cc1,-3.68%
4,O=C1CCCC2=C1C(c1ccc(O)cc1)c1c(ccc3ccccc13)N2 (stereo not drawn),1.35%
5,C[N+]12CCC(CC1)C(C(O)(c1cccc(Cl)c1)c1cccc(Cl)c1)C2.[I-] (stereo not drawn),8.96%
6,COc1cc(/C=N/N=C(\N)c2nonc2N)ccc1O,11.8%
7,C=CCn1c(SCCCCCC)nc(O)cc1=O,-0.713%
8,CC(C)(C)Nc1nc(NCc2cccnc2)nc(N2CCOCC2)n1,7.88%
9,O=[N+]([O-])c1cc(C(F)(F)F)ccc1NCCc1ccccn1,3.84%
10,O=c1c(Cc2ccc(Cl)cc2)c(O)ccn1Cc1cccc(Cl)c1,12%
11,CC1CCc2sc(C(=O)NCC(C)(C)N3CCOCC3)cc2C1 (stereo not drawn),2.41%
12,CCOCCCN1C(=O)C2C(C(=O)Nc3ccc(OCC)cc3)C3C=CC2(O3)C1C(=O)NC1CCCCC1 (stereo not drawn),-2.66%
13,Cc1nnsc1S(=O)c1ccc(F)cc1 (stereo not drawn),10.8%
14,O=C(Cc1csc(NC(=O)c2ccccc2)n1)NO,6.72%
15,COc1ccc(NC(=S)N2CCC(N(C)CC3CCCO3)CC2)cc1 (stereo not drawn),12.2%
16,CCOC(=O)c1ccc(NC(=O)CCS(=O)(=O)c2ccc(Br)s2)cc1,-1.71%
17,CSc1ccccc1NC(=O)CN(C)CC(=O)NCC(=O)Nc1ccc(F)cc1,2.71%
18,CC(C)NC(=S)N1CCN(C(c2ccccc2)c2ccccc2)CC1,1.13%
19,Cc1ccc(NC(=S)N=Nc2c(O)n(C)c3ccc(S(=O)(=O)N4CCOCC4)cc23)cc1C,14%
20,O=C(NCCc1ccc(F)cc1)c1cc([N+](=O)[O-])ccc1N1CCOCC1,-98.2%
21,CC1CCCCN1C(=O)c1c([N+](=O)[O-])cnn1C (stereo not drawn),5.13%
22,N#C/C(=C(/O)CN1CCOCC1)c1nc2ccccc2s1,13.8%
